Source: PubChem BioAssay (Tox21)
Several values for one entry are separate records, joined by “and”; a condition that tells them apart may be missing. Identical values can stand only once. The shares of active, inactive and inconclusive entries below differ from those in the screen. Potencies of inconclusive entries are doubtful fits and often do not repeat. Some compounds were tested as several samples or in several runs, with calls that do not always agree. Activity calls are given as the source filed them. Calls come from the whole dose curve; as a rule, active = well fitted curve in the direction sought with a large enough effect in the repeat runs; inconclusive = weak or mixed curves; inactive = no such curve, though single readings can be large; an effect the other way counts as inactive or inconclusive.

Assay: qHTS RealTime-Glo MT Cell Viability Assay in HepG2 cells - 16 hour (AID 1224885)
Conditions: RealTime-Glo luminescence; series mostly up to 76.8 µM
In short: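 Tox21 10K library screened in qHTS format on HepG2 cells carrying RealTime-Glo reagents. Compounds were added after a 5 h preincubation, and the luminescent signal from continuous culture was measured repeatedly during 40 h treatment.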
Note: nearly all actives have a fitted effect of over 50% in size.
Potency is the fitted concentration of half-maximal effect; tags give direction and shape of the fitted curve.

Structure (SMILES) | Potency
CCCCC(CC)CN1CN(CC(CC)CCCC)CC(C)(N)C1 (stereo not drawn) | active: 19 µM
CCCCCCOc1cc(C)c(O)c(C)c1C | inconclusive: 22.1 µM [cytotoxic, partial curve]
C=C1C(C)(C)[C@@]2(Cl)C(Cl)[C@]1(Cl)C(Cl)(Cl)C2(Cl)Cl (stereo partly drawn) | inconclusive: 53.9 µM [cytotoxic, single point]
CN(C)c1ccc(C(=C2C=CC(=[N+](C)C)C=C2)c2ccccc2)cc1 | active: 10.7 µM [middle of 4 runs]
Clc1ccc2c(c1)C(N1CCNCC1)=Nc1ccccc1O2 | inconclusive: 54.9 µM [cytotoxic, partial curve] and inconclusive: 26.8 µM [cytotoxic, single point]
C#C[C@]1(O)CC[C@H]2[C@@H]3CCC4=CC(=O)CC[C@@H]4[C@H]3CC[C@@]21CC | inactive
CC(O)(c1ccc(Cl)cc1)c1ccc(Cl)cc1 | inconclusive: 49 µM [cytotoxic, partial curve]
CC[C@H](C)C(=O)O[C@H]1C[C@@H](C)C=C2C=C[C@H](C)[C@H](CC[C@@H]3C[C@@H](O)CC(=O)O3)[C@H]21 | inconclusive: 62.5 µM [cytotoxic, single point]

Assay: qHTS RealTime-Glo MT Cell Viability Assay in HEK293 cells - 24 hour (AID 1224886)
Conditions: RealTime-Glo luminescence; series mostly up to 76.8 µM
In short: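 Luminescence generated by NanoLuc from substrate produced by living HEK293 cells served as the viability signal. Each value reflects the reading at its stated time point during continuous 40 h compound exposure at 37 C.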

Structure (SMILES) | Potency
CC=O | active: 0.575 µM
CCN(CC)CCOc1ccc(/C(=C(\Cl)c2ccccc2)c2ccccc2)cc1 | active: 12.6 µM and active: 21.3 µM
O=C(NO)c1ccccc1 | inconclusive: 10.4 µM [rising, full curve, poor fit]
O=S1(=O)CC(Cl)(Cl)C(Cl)(Cl)C1 | inconclusive: 0.616 µM [rising, partial curve]
CCC(C)Nc1ccc(NC(C)CC)cc1 (stereo not drawn) | active: 4.45 µM
O=C(N[C@H](CO)[C@H](O)c1ccc([N+](=O)[O-])cc1)C(Cl)Cl | inconclusive: 27.5 µM [rising, partial curve, poor fit]
Cc1cc(O)c2ccccc2c1O | active: 7.56 µM
CSc1ccc2c(c1)N(CCC1CCCCN1C)c1ccccc1S2 (stereo not drawn) | inconclusive: 26.8 µM [cytotoxic, single point]
CCCCCCCCCCn1cc[n+](CCCCCCCCCC)c1C | active: 2.19 µM
O=C1Cc2cc(CCN3CCN(c4nsc5ccccc45)CC3)c(Cl)cc2N1 | active: 23.9 µM
CCCCCCCCCCCCN(CCO)CCO | active: 43.5 µM
CCCCCCCCOC(=O)c1ccc(O)cc1 | active: 24.5 µM and inconclusive: 19.5 µM [cytotoxic, full curve]
O=C1C=CC(=O)N1c1ccc(Cc2ccc(N3C(=O)C=CC3=O)cc2)cc1 | active: 13.8 µM
CCCCCCOc1cc(C)c(O)c(C)c1C | active: 15.7 µM
C=C1C(C)(C)[C@@]2(Cl)C(Cl)[C@]1(Cl)C(Cl)(Cl)C2(Cl)Cl (stereo partly drawn) | inconclusive: 60.5 µM [cytotoxic, single point]
Clc1ccccc1C(c1ccccc1)(c1ccccc1)n1ccnc1 | active: 21.9 µM and active: 6.01 µM
CN(C)c1ccc(C(=C2C=CC(=[N+](C)C)C=C2)c2ccccc2)cc1 | active: 2.39 µM [middle of 4 runs]
C#C[C@]1(O)CC[C@H]2[C@@H]3CCC4=CC(=O)CC[C@@H]4[C@H]3CC[C@@]21CC | inconclusive: 39 µM [cytotoxic, partial curve] and inconclusive: 24.5 µM [cytotoxic, partial curve]
C[C@]12CC[C@@H]3c4ccc(O)cc4CC[C@H]3[C@@H]1CCC2=O | inconclusive: 5.4 µM [cytotoxic, full curve] and inconclusive: 21.3 µM [cytotoxic, partial curve, poor fit]
CC[C@H](C)C(=O)O[C@H]1C[C@@H](C)C=C2C=C[C@H](C)[C@H](CC[C@@H]3C[C@@H](O)CC(=O)O3)[C@H]21 | inconclusive: 55.7 µM [cytotoxic, partial curve]
